Experimental findings from the supplement of paper PMC6609913 are described below.

Structures can show the parent of a compound that is named as a salt. ± gives the standard deviation of the averaged measurements. The full ranking holds about 1,300 compounds; the median of “normalised cell viability” is about 1, and the lowest 2% start at about 0.14. Some of the results follow.

The assay deals with V-C8 (BRCA2-deficient hamster cells). The experiment in a line: normalised cell viability (fraction of plate median); higher = more viable cells (less toxic). To be noted: 5 µM. The procedure, abridged: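 BRCA2-deficient hamster V-C8 cells and BRCA2-restored V-C8 cells were plated in 96-well plates, and library drugs were added 24 h later at 5 μM in 100 μl medium. Exposure lasted 3 days in screen 1 and 6 days in screen 2, next to solvent-only wells. Viability was then read by resazurin assay, median-plate normalised and averaged across triplicate wells.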

Regarding `C=C[C@H]1CN2CC[C@H]1C[C@@H]2[C@@H](O)c1ccnc2ccc(OC)cc12` [Quinidine hydrochloride monohydrate], the normalised cell viability by setting is: (treatment time: 3 days) 0.997 ± 0.0082; (treatment time: 6 days) 0.876 ± 0.16.

As to `C[C@]12CC[C@H]3C(=CCc4cc(O)ccc43)[C@@H]1CCC2=O` [Equilin], the normalised cell viability was found to be 1.03 ± 0.045 (treatment time: 3 days) and 0.974 ± 0.031 (treatment time: 6 days).

`CN(C)CCC=C1c2ccccc2CCc2ccccc21` [Amitryptiline hydrochloride]: the normalised cell viability reads like this: (treatment time: 3 days) 0.856 ± 0.018; (treatment time: 6 days) 0.893 ± 0.051.

`Cc1ccnc2c1NC(=O)c1cccnc1N2C1CC1` [Nevirapine]: the normalised cell viability reads like this: (treatment time: 3 days) 0.942 ± 0.023; (treatment time: 6 days) 0.994 ± 0.039.

`Cc1[nH]c(=O)c(C#N)cc1-c1ccncc1` [Milrinone] gave a normalised cell viability (treatment time: 3 days) of 1.2 ± 0.26 and a normalised cell viability (treatment time: 6 days) of 0.981 ± 0.038.

In the case of `CS(=O)(=O)c1ccc(C2=C(c3ccccc3)C(=O)OC2)cc1` [Rofecoxib], the normalised cell viability runs as follows: (treatment time: 3 days) 1.02 ± 0.065; (treatment time: 6 days) 1.02 ± 0.016.

Consider `Cn1c(=O)c2[nH]cnc2n(C)c1=O` [Aminophylline], for which the normalised cell viability (treatment time: 3 days) was determined as 1.08 ± 0.035 and the normalised cell viability (treatment time: 6 days) came out at 1 ± 0.042.

As to `COc1ccc(-c2cc(=O)c3c(O)cc(O[C@@H]4O[C@H](CO[C@@H]5O[C@@H](C)[C@H](O)[C@@H](O)[C@H]5O)[C@@H](O)[C@H](O)[C@H]4O)cc3o2)cc1O` [Diosmin], the normalised cell viability worked out at 1.04 ± 0.065 (treatment time: 3 days) and 1.01 ± 0.014 (treatment time: 6 days).

For `CCCCCCCN(CC)CCCC(O)c1ccc(NS(C)(=O)=O)cc1` (stereo unspecified) [Ibutilide fumarate], the normalised cell viability was 1.02 ± 0.0081 (treatment time: 3 days) and 0.983 ± 0.025 (treatment time: 6 days).

On to `c1ccc2[nH]c(-c3cscn3)nc2c1` [Tiabendazole], for which the normalised cell viability came out at 1.07 ± 0.041 (treatment time: 3 days) and 1.02 ± 0.028 (treatment time: 6 days).

With `CN1CC2c3ccccc3Oc3ccc(Cl)cc3C2C1` (stereo unspecified) [Asenapine maleate], the normalised cell viability reads like this: (treatment time: 3 days) 0.92 ± 0.083; (treatment time: 6 days) 0.97 ± 0.11.

Regarding `CC1CS(=O)(=O)CCN1/N=C/c1ccc([N+](=O)[O-])o1` (stereo unspecified) [Nifurtimox], the normalised cell viability runs as follows: (treatment time: 3 days) 1.04 ± 0.077; (treatment time: 6 days) 1 ± 0.06.

Consider `C[C@]12CC[C@@H]3c4ccc(O)cc4CC[C@H]3[C@@H]1CCC2=O` [Estrone], for which the normalised cell viability by setting is: (treatment time: 3 days) 0.997 ± 0.015; (treatment time: 6 days) 1.01 ± 0.028.

As to `COc1cc(C(=O)NC2CCCNC2)cc(OC)c1OC` (stereo unspecified) [Troxipide], the normalised cell viability by setting is: (treatment time: 3 days) 1.03 ± 0.065; (treatment time: 6 days) 1 ± 0.022.

As to `CN(C)[C@@H]1C(O)=C(C(N)=O)C(=O)[C@@]2(O)C(O)=C3C(=O)c4c(O)ccc(Cl)c4[C@@](C)(O)[C@H]3C[C@@H]12` [Chlortetracycline hydrochloride], the normalised cell viability runs as follows: (treatment time: 3 days) 1.1 ± 0.034; (treatment time: 6 days) 1.08 ± 0.031.

The compound `CC(=O)N(CC(C)C(=O)O)c1c(I)cc(I)c(N)c1I` (stereo unspecified) [Iocetamic acid] returned a normalised cell viability (treatment time: 3 days) of 1.02 ± 0.023 and a normalised cell viability (treatment time: 6 days) of 0.976 ± 0.035.

For `CCCCC(C)(O)C/C=C/[C@H]1[C@H](O)CC(=O)[C@@H]1CCCCCCC(=O)OC` (mixture of isomers) [Misoprostol], the normalised cell viability (treatment time: 3 days) stood at 1.03 ± 0.024 and the normalised cell viability (treatment time: 6 days) is 0.925 ± 0.028.

As to `CNCCC(Oc1ccccc1OC)c1ccccc1` (stereo unspecified) [Nisoxetine hydrochloride], the normalised cell viability (treatment time: 3 days) is 1.08 ± 0.063 and the normalised cell viability (treatment time: 6 days) was 1.05 ± 0.064.

On to `COc1ccccc1O` [Guaiacol], for which the normalised cell viability was determined as 1.014 ± 0.0094 (treatment time: 3 days) and 1.06 ± 0.094 (treatment time: 6 days).

For the compound `O=C(O)CCC(=O)Nc1ccc(S(=O)(=O)Nc2nccs2)cc1` [Succinylsulfathiazole], the normalised cell viability is, setting by setting: (treatment time: 3 days) 0.998 ± 0.016; (treatment time: 6 days) 1.03 ± 0.069.

For the compound `COc1cnc(NS(=O)(=O)c2ccc(N)cc2)nc1` [Sulfameter], the normalised cell viability runs as follows: (treatment time: 3 days) 1.07 ± 0.025; (treatment time: 6 days) 1.02 ± 0.093.

Compound `Cc1cccc(CN2CCN(C(c3ccccc3)c3ccc(Cl)cc3)CC2)c1` (stereo unspecified) [Meclozine dihydrochloride] had a normalised cell viability (treatment time: 3 days) of 1.09 ± 0.11 and a normalised cell viability (treatment time: 6 days) of 1.07 ± 0.026.

For the compound `CCOC(=O)C1=C[C@]2(CC)CCCN3CCc4c(n1c1ccccc41)[C@@H]32` [Vinpocetine], the normalised cell viability reads like this: (treatment time: 3 days) 1.12 ± 0.093; (treatment time: 6 days) 1.14 ± 0.066.

On to `COc1ccc2cc([C@@H](C)C(=O)O)ccc2c1` [(R) -Naproxen sodium salt], for which the normalised cell viability reads like this: (treatment time: 3 days) 0.91885 ± 0.00085; (treatment time: 6 days) 0.978 ± 0.043.

Take `Nc1nc(=O)c2c([nH]1)NC[C@@H](CNc1ccc(C(=O)N[C@@H](CCC(=O)O)C(=O)O)cc1)N2C=O` [Folinic acid calcium salt]: the normalised cell viability (treatment time: 3 days) was determined as 1.05 ± 0.036 and the normalised cell viability (treatment time: 6 days) came to 1.11 ± 0.06.

Take `CCCCC(CC)CNC(=N)NC(=N)NCCCCCCNC(=N)NC(=N)NCC(CC)CCCC` (stereo unspecified) [Alexidine dihydrochloride]: the normalised cell viability (treatment time: 3 days) was determined as 0.124 ± 0.0044 and the normalised cell viability (treatment time: 6 days) is 0.132 ± 0.0043.

Turning to `COC(=O)[C@@H]1[C@H]2C[C@H]3c4[nH]c5ccccc5c4CCN3C[C@@H]2CC[C@@H]1O` [Yohimbine hydrochloride], the normalised cell viability is, setting by setting: (treatment time: 3 days) 1.08 ± 0.11; (treatment time: 6 days) 0.996 ± 0.031.

Consider `CC1(C)NC(=O)N(c2ccc([N+](=O)[O-])c(C(F)(F)F)c2)C1=O` [Nilutamide], for which the normalised cell viability reads like this: (treatment time: 3 days) 1.01 ± 0.013; (treatment time: 6 days) 0.938 ± 0.044.

For `CCC1=C(C)CN(C(=O)NCCc2ccc(S(=O)(=O)NC(=O)N[C@H]3CC[C@H](C)CC3)cc2)C1=O` [Glimepiride], the normalised cell viability by setting is: (treatment time: 3 days) 1.01 ± 0.029; (treatment time: 6 days) 1.12 ± 0.042.

As to `O=C1CCc2cc(OCCCCc3nnnn3C3CCCCC3)ccc2N1` [Cilostazol], the normalised cell viability (treatment time: 3 days) is 1.09 ± 0.1 and the normalised cell viability (treatment time: 6 days) was determined as 0.932 ± 0.094.

For the compound `CCS(=O)(=O)CCn1c([N+](=O)[O-])cnc1C` [Tinidazole], the normalised cell viability is, setting by setting: (treatment time: 3 days) 1.04 ± 0.027; (treatment time: 6 days) 1.21 ± 0.24.

For the compound `CCCCOc1cc(C(=O)NCCN(CC)CC)c2ccccc2n1` [Dibucaine], the normalised cell viability is 0.963 ± 0.036 (treatment time: 3 days) and 0.967 ± 0.065 (treatment time: 6 days).

As for `O=P(O)(O)C(Cl)(Cl)P(=O)(O)O` [Clodronate], the normalised cell viability reads like this: (treatment time: 3 days) 1.04 ± 0.026; (treatment time: 6 days) 1.07 ± 0.051.
